Results: patent US9789203B2, “cKIT antibody drug conjugates” (Novartis AG, priority 2013, dated 2017)
Entries after “also recorded” stand apart in the source; their conditions may differ. Where two headings read alike, the source gives them in different places.

T1: mouse cKIT ECD (Mus musculus, UniProt P05532)
T1 construct: 3.125-50 nM of cKIT receptor extracellular domains (ECD) were diluted in a 2-fold series
T1 sequence (P05532 25-527 limits assumed): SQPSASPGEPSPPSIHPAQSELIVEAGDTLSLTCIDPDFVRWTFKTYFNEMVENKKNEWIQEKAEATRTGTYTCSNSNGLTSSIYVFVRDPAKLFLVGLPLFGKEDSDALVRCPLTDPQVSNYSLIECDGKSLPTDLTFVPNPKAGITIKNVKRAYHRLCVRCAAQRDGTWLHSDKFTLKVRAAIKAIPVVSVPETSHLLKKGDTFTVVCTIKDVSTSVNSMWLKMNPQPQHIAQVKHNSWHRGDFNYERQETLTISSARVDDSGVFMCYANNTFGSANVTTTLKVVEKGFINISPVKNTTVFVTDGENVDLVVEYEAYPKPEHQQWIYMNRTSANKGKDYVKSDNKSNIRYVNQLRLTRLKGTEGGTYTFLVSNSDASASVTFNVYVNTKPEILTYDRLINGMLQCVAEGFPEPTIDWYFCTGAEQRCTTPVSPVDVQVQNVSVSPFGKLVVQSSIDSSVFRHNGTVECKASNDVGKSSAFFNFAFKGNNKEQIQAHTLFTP

B1: 20376 (antibody)
heavy: QVQLVQSGAEVKKPGSSVKVSCKASGGTFSSYAISWVRQAPGQGLEWMGGIIPMSGRTTYAQKFQGRVTITADESTSTAYMELSSLRSEDTAVYYCARDYGPEAPDYGQSTSYFWYYAFDPWGQGTLVTVSSASTKGPSVFPLAPSSKSTSGGTAALGCLVKDYFPEPVTVSWNSGALTSGVHTFPAVLQSSGLYSLSSVVTVPSSSLGTQTYICNVNHKPSNTKVDKRV[human IgG1 Fc omitted here]
light: DIELTQPPSVSVSPGQTASITCSGDNIPSYFVHWYQQKPGQAPVLVIYDDNDRPSGIPERFSGSNSGNTATLTISGTQAEDEADYYCSSWDQDTVVFGGGTKLTVLGQPKAAPSVTLFPPSSEELQANKATLVCLISDFYPGAVTVAWKADSSPVKAGVETTTPSKQSNNKYAASSYLSLTPEQWKSHRSYSCQVTHEGSTVEKTVAPTECS
B2: NEG085 (antibody)
heavy: EVQLVESGGGLVQPGGSLRLSCAASGFAFSGYYMAWVRQAPGKGLEWVANINYPGSSTYYLDSVKGRFTISRDNAKNSLYLQMNSLRAEDTAVYYCARGDYYGTTYWYFDVWGQGTTVTVSSASTKGPSVFPLAPSSKSTSGGTAALGCLVKDYFPEPVTVSWNSGALTSGVHTFPAVLQSSGLYSLSSVVTVPSSSLGTQTYICNVNHKPSNTKVDKRV[human IgG1 Fc omitted here]
light: DIQMTQSPSSLSASVGDRVTITCRASQSISSYLNWYQQKPGKAPKLLIYYTSRLQSGVPSRFSGSGSGTDFTLTISSLQPEDFATYYCQQGRRLWSFGGGTKVEIKRTVAAPSVFIFPPSDEQLKSGTASVVCLLNNFYPREAKVQWKVDNALQSGNSQESVTEQDSKDSTYSLSSTLTLSKADYEKHKVYACEVTHQGLSSPVTKSFNRGEC
B3: NEG085-MCC-DM1 (conjugate)
heavy: EVQLVESGGGLVQPGGSLRLSCAASGFAFSGYYMAWVRQAPGKGLEWVANINYPGSSTYYLDSVKGRFTISRDNAKNSLYLQMNSLRAEDTAVYYCARGDYYGTTYWYFDVWGQGTTVTVSSASTKGPSVFPLAPSSKSTSGGTAALGCLVKDYFPEPVTVSWNSGALTSGVHTFPAVLQSSGLYSLSSVVTVPSSSLGTQTYICNVNHKPSNTKVDKRV[human IgG1 Fc omitted here]
light: DIQMTQSPSSLSASVGDRVTITCRASQSISSYLNWYQQKPGKAPKLLIYYTSRLQSGVPSRFSGSGSGTDFTLTISSLQPEDFATYYCQQGRRLWSFGGGTKVEIKRTVAAPSVFIFPPSDEQLKSGTASVVCLLNNFYPREAKVQWKVDNALQSGNSQESVTEQDSKDSTYSLSSTLTLSKADYEKHKVYACEVTHQGLSSPVTKSFNRGEC

Experiments:
mouse cKIT ECD = biological target: T1, mouse cKIT ECD; test: SPR (Biacore 2000) affinity measurement; format: binding; details: 25° C., antibody captured, ECD in solution
Method: Affinity of the antibodies to cKIT species orthologues and also to cKIT was determined using SPR technology using a Biacore® 2000 instrument (GE Healthcare, Pittsburgh, Pa.) and with CM5 sensor chips.
Briefly, HBS-P (0.01 M HEPES, pH 7.4, 0.15 M NaCl, 0.005% Surfactant P20) supplemented with 2% Odyssey® blocking buffer (Li-Cor Biosciences, Lincoln, Nebr.) was used as the running buffer for all the experiments. The immobilization level and analyte interactions were measured by response unit (RU). Pilot experiments were performed to test and confirm the feasibility of the immobilization of the anti-human Fc antibody (Catalog number BR100839, GE Healthcare, Pittsburgh, Pa.) and the capture of the test antibodies.
For kinetic measurements, the experiments were performed in which the antibodies were captured to the sensor chip surface via the immobilized anti-human Fc antibody and the ability of the cKIT proteins to bind in free solution was determined Briefly, 25 μg/ml of anti-human Fc antibody at pH 5 was immobilized on a CM5 sensor chip through amine coupling at flow rate of 5 μl/minute on all two flow cells to reach 10,500 RUs. 0.1-1 μg/ml of test antibodies were then injected at 10 μl/min for 1 minute. Captured levels of the antibodies were generally kept below 200 RUs. Subsequently, 3.125-50 nM of cKIT receptor extracellular domains (ECD) were diluted in a 2-fold series and injected at a flow rate of 40 μl/min for 3 min over both reference and test flow cells. Table of tested ECDs is listed below. Dissociation of the binding was followed for 10 min. After each injection cycle, the chip surface was regenerated with 3 M MgCl2 at 10 μl/min for 30 s.

[1] = test system: surface cKIT on GIST-T1 cells; test: cKIT Ab-mediated internalization by flow cytometry; format: cell-based, human; details: 10 μg/ml, 37° C., FIG. 13A
Method: The kinetics of cKIT antibody mediated internalization was evaluated by treating with antibody in a cell monolayer using a temperature shift method and flow cytometry readout. GIST-T1 (kindly provided by Dr. Takahiro Taguchi, Kochi U., Japan) cells were seeded at 2.5×10E5 cells/well in five 12-well tissue culture treated plates (BD Falcon 353043). The cells were incubated in a tissue culture incubator at 37° C. with 5% CO2 overnight. The following day medium was removed and replaced with 450 μl fresh medium. […] All cells were incubated for 1 hr on ice, followed by two washes with 1 mL 1× Phosphate buffered saline (PBS) and resuspended in 500 μl cell culture medium. Plates #2-5 were transferred to 37° C. and harvested at time points; 30 min, 2 hr, 4 hr and 24 hr at 37° C. with 5% CO2. 100 μl of cell dissociation buffer (Gibco Cat#13150-016, Life Technologies, Carlsbad, Calif.) was added to plate#1 (4° C. binding control) and incubated at 37° C. until cells were detached. Cells were neutralized with 100 μl of medium and transferred to a 96 well V-bottom tissue culture treated plate (Costar 3894). […] The following day, all samples were analyzed using the BD FACSCanto II® equipment using a HTS system (BD Biosciences, San Jose, Calif.). Samples were analyzed with FlowJo software to obtain the Geometric Mean values of fluorescence for the Phycoerythrin channel. […]

[2] = test system: cKIT on normal human CD34+ bone marrow cells; test: Internalization, cKIT receptor levels by flow cytometry; format: cell-based; details: 10 μg/ml; for internalization of surface cKIT: 37° C., FIG. 13B
Method: In another internalization experiment, the impact of NEG085 on cKIT receptor levels was evaluated on human bone marrow cells. Normal human CD34+ bone marrow cells (All Cells, Cat #ABM022F, Emeryville, Calif.) were thawed and washed with 10 mL of StemPro®-34 SFM medium (Gibco, Life Technologies, Carlsbad, Calif.). Cells were resuspended in 1.25 mL of StemPro-34 SFM medium at 4×10^5 cells/mL and split equally into two tubes. […] 100 μL of cell suspension was collected at each timepoint (0, 15, 30, 60, 120, and 240 min) from each condition, and placed into an ice cold collection tube to cease internalization. Cells were washed with 3 mL of ice-cold FBS stain buffer and resuspended in 100 μL of FBS stain buffer. […] of 104D2-BV421 (mouse anti-human IgG1 k, Biolegend, San Diego Calif.) was added to each tube and incubated on ice for 1 hour. Following another wash with FBS stain buffer, total cKIT receptors were measured by flow cytometry by assessing the mean fluorescence intensity of BV421 on a FACS Canto II® (BD Biosciences, San Jose, Calif.).

[3] = GIST430, Day 28, 10 mg/kg Single Dose IV
[4] = GIST 430, single i.v. dose 10 mg/kg
[5] = GIST430, Day 28, 5 mg/kg Single Dose IV

Molecule | Affinity mouse cKIT (mouse cKIT ECD) | internalization of surface cKIT [1] | internalization of surface cKIT [2] | Mean change of tumor volume (GIST430 tumor xenograft; [3]) | Mean change of tumor volume vs control (ΔT/ΔC) (GIST430 tumor xenograft; [3]) [%] | Survival (GIST430 tumor xenograft; [3]) | antitumor activity (tumor volume) (GIST430 tumor xenograft; [4]) | time of the bulk of the internalization [2] [min] | tolerability (GIST430 tumor xenograft; GIST 430, 2.5, 5 or 10 mg/kg single i.v. dose) | Mean change of tumor volume (GIST430 tumor xenograft; [5]) | Mean change of tumor volume vs control (ΔT/ΔC) (GIST430 tumor xenograft; [5]) [%] | Survival (GIST430 tumor xenograft; [5]) | antitumor activity (tumor volume) (GIST430 tumor xenograft; GIST 430, single i.v. dose 5 mg/kg)
B1 | cross reacted with mouse | rapid internalization; also recorded: rapidly internalized | rapid internalization |  |  |  |  |  |  |  |  |  | 
B2 | Not reactive | rapid internalization; also recorded: rapidly internalized | rapid internalization; also recorded: rapidly internalized | 760 ± 119 mm3 ± SEM | 88 | 8/8 | not active | 15 |  |  |  |  | 
B3 |  |  |  | 167 ± 42 mm3 ± SEM | 19 | 8/8 | significantly efficacious |  | well tolerated at all dose levels | 485 ± 70 mm3 ± SEM | 56 | 8/8 | not significantly active
